{"source": "the supplement of paper PMC11417369", "note": "± gives the standard deviation of the averaged measurements. This is one part of the list."}
{"tested_on": "PfAP2-LT AP2 domain (GST-tagged)", "experiment": "gcPBM binding intensity (ln(normalized median fluorescence intensity)); higher = stronger DNA binding", "summary_of_the_method": "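The highest Masliner-normalised natural-log median intensity across replicate spots of either probe orientation is reported as binding intensity. GST-tagged P. falciparum DNA-binding domains expressed in E. coli were applied for 1 h to an Agilent 4 × 180k array of primer-extended double-stranded 36-bp intergenic genomic probes plus negative controls, and bound protein was detected with Alexa488 anti-GST antibody and scanned at 488 nm.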"}
{"sequence": "CCGTATATTTTATATAGTACTCATCATATATTTTTA [XGTACX_site5560]", "gcPBM binding intensity (ln)": "8.64 ± 0.54"}
{"sequence": "CAAATTGGGAAATTTTGTACATATAATAAGGATACC [XGTACX_site7728]", "gcPBM binding intensity (ln)": "8.71 ± 0.39"}
{"sequence": "GATAATGAATGATGCACACTAAAAATATTCTACAAC [CACACA_site3622]", "gcPBM binding intensity (ln)": "9.29 ± 0.41"}
{"sequence": "CCTTTATTAAATAAATGTACATATTTTTGTGTTCTT [XGTACX_site2052]", "gcPBM binding intensity (ln)": "8.79 ± 0.5"}
{"sequence": "AAAAACTTTTCAAGTAGTACCATATCTACAATAGTA [XGTACX_site8927]", "gcPBM binding intensity (ln)": "8.53 ± 0.47"}
{"sequence": "AAACAAAAGATATATACACACTAAACATAAAAAAAA [CACACA_site6161]", "gcPBM binding intensity (ln)": "9.1 ± 0.47"}
{"sequence": "GTTGGTAGGATGTATGGTACACGTAGTATTTTTCTT [XGTACX_site2]", "gcPBM binding intensity (ln)": "9.13 ± 0.35"}
{"sequence": "AATAAAAATAAAATTGTATATTTTAAATGAAAATAA [CACACA_negctrl_site898]", "gcPBM binding intensity (ln)": "8.4 ± 0.6"}
{"sequence": "AAACTCTCTTATATTAAACACACATATATATATGTA [CACACA_site8865]", "gcPBM binding intensity (ln)": "8.83 ± 0.37"}
{"sequence": "CATCAAAATGCTACATGTACATATATATAATATATT [XGTACX_site5207]", "gcPBM binding intensity (ln)": "8.9 ± 0.35"}
{"sequence": "AATATATATAAATAAACACACACAAATATAATAAAA [CACACA_site9176]", "gcPBM binding intensity (ln)": "9.51 ± 0.38"}
{"sequence": "GAAATGAACAAGTGGGTGCGTATTAATTACATATTA", "gcPBM binding intensity (ln)": "8.91 ± 0.49"}
{"sequence": "ATAGATAAATTTACGGGTACTAAAATGGAATATGAA [XGTACX_site8637]", "gcPBM binding intensity (ln)": "8.76 ± 0.46"}
{"sequence": "TGTGTTCAGTATTGCACACACACAACCAAATAAAAA [CACACA_site379]", "gcPBM binding intensity (ln)": "9.56 ± 0.38"}
{"sequence": "TATTTTACAATAACAATACACACTATAATATATATA [CACACA_site1391]", "gcPBM binding intensity (ln)": "8.68 ± 0.38"}
{"sequence": "ATTCACATATTATCTTTACACACTATATATAAGTTT [CACACA_site8901]", "gcPBM binding intensity (ln)": "9.14 ± 0.44"}
{"sequence": "TTTTTAATTTTTTTTAAACACACACCGTACATTCAA [CACACA_site7925]", "gcPBM binding intensity (ln)": "8.94 ± 0.65"}
{"sequence": "TATATACTTTATAAATGTACATATAATGTATTATTT [XGTACX_site7313]", "gcPBM binding intensity (ln)": "8.71 ± 0.36"}
{"sequence": "TCATTTTAAATATGTGTGCACGTTATAATTTACACA", "gcPBM binding intensity (ln)": "9.12 ± 0.4"}
{"sequence": "CATTTTCATTTTAAGGTGCATTAATATTTATTTTAA [GTGCAC_site9437]", "gcPBM binding intensity (ln)": "8.5 ± 0.48"}
{"sequence": "TATATATATACATATTGTACATATTACATGCTATTA [XGTACX_site1184]", "gcPBM binding intensity (ln)": "8.95 ± 0.36"}
{"sequence": "TTTTATAAACAGAGGGGTACGGGAAAAAAAAAAAAA [XGTACX_site1480]", "gcPBM binding intensity (ln)": "8.52 ± 0.46"}
{"sequence": "TGTTAAAGAGAAAGTACTACACATATTATGTGTTTT [XGTACX_site1435]", "gcPBM binding intensity (ln)": "8.85 ± 0.49"}
{"sequence": "AGAAAAAAAAAACACACACACACACCGTCAATATAA [CACACA_site7895]", "gcPBM binding intensity (ln)": "10.1 ± 0.2"}
{"sequence": "TTAAAAAAAATTATTTGTACTTAAAAATTTTATATT [XGTACX_site8751]", "gcPBM binding intensity (ln)": "8.07 ± 0.64"}
{"sequence": "TTTTTAAACCATGTTGTGCACATTTTTTTTGGATTT", "gcPBM binding intensity (ln)": "8.97 ± 0.53"}
{"sequence": "TACATGAATATATAAAGAAAAAAAAAAAAACACACA [XGTACX_negctrl_site350]", "gcPBM binding intensity (ln)": "8.74 ± 0.41"}
{"sequence": "TATAAATTATATATTTGTACGTATATCACATATATA [XGTACX_site7053]", "gcPBM binding intensity (ln)": "8.72 ± 0.38"}
{"sequence": "TTTATTGAATAAAATGCACACGCATGCGTTATTTAT [CACACA_site9154]", "gcPBM binding intensity (ln)": "9.18 ± 0.38"}
{"sequence": "TATATGTTATATTTAACACACATATAAGGTACATAT [CACACA_site612]", "gcPBM binding intensity (ln)": "8.99 ± 0.37"}
{"sequence": "TTCTCATAATTAAATAGTACATATTTTAATAATCAC [XGTACX_site6116]", "gcPBM binding intensity (ln)": "8.47 ± 0.35"}
{"sequence": "TTAGTTATTATAATTTGTACACAAATGGTAAAGTAT [XGTACX_site2343]", "gcPBM binding intensity (ln)": "8.76 ± 0.33"}
{"sequence": "TTTGTACCGGCATTTTTTTTTTCTTTTTTTTTCCAA [XGTACX_negctrl_site323]", "gcPBM binding intensity (ln)": "8.64 ± 0.56"}
{"sequence": "TATTAAAAATGTTAAGTGCAAAAATAAAAATTGTGG [GTGCAC_site9854]", "gcPBM binding intensity (ln)": "8.74 ± 0.44"}
{"sequence": "AAAATTATATATTATAGTACATAAAATTTTGATATA [XGTACX_site994]", "gcPBM binding intensity (ln)": "8.52 ± 0.45"}
{"sequence": "AATAAATAAAAATATATATATATAATATACATGTGT [TGCATGCA_negctrl_site369]", "gcPBM binding intensity (ln)": "8.85 ± 0.52"}
{"sequence": "GGATGTATTTATATGTGTATGTGTTTGGAAATATGT [XGTACX_negctrl_site99]", "gcPBM binding intensity (ln)": "9.08 ± 0.28"}
{"sequence": "ACATATGAAAAATATGCATGCAAATATTATTTAACA [TGCATGCA_site802]", "gcPBM binding intensity (ln)": "9.03 ± 0.37"}
{"sequence": "TTTTTAAAATTTTTAAAAATATTATGTTAAATATAT [CACACA_negctrl_site415]", "gcPBM binding intensity (ln)": "8.1 ± 0.36"}
{"sequence": "TATGTATGTTAGTGTGCACACATAAATATTATATAT [CACACA_site9121]", "gcPBM binding intensity (ln)": "9.4 ± 0.26"}
{"sequence": "ATATATATGTATTTATGTACATATTATTTTTCTTAA [XGTACX_site8169]", "gcPBM binding intensity (ln)": "8.68 ± 0.45"}
{"sequence": "AAAAAAAAAAAAATCTCACACATAAAGAGATTATGA [CACACA_site4408]", "gcPBM binding intensity (ln)": "8.43 ± 0.51"}
{"sequence": "TTGAAAGAAAATAAAATAAAATAAAATAAAATAAAA [CACACA_negctrl_site859]", "gcPBM binding intensity (ln)": "8.47 ± 0.67"}
{"sequence": "TTTTAAAAATTAAGTGCATGTCCTTATAAAAAAAAA [TGCATGCA_site845]", "gcPBM binding intensity (ln)": "8.21 ± 0.4"}
{"sequence": "TTCATATATTTAGGACGTACTTTTATATTACTATAT [XGTACX_site6456]", "gcPBM binding intensity (ln)": "8.88 ± 0.32"}
